# Results published in a collection of fitness landscapes (doi:10.1126/science.1257360).
# The other results are listed elsewhere or left out.
# B1: PhoQ; a variant is named by its letters at X, in order, P23837 (parent)
# chain: MKKLLRLFFPLSLRVRFLLATAAVVLVLSLAYGMVALIGYSVSFDKTTFRLLRGESNLFYTLAKWENNKLHVELPENIDKQSPTMTLIYDENGQLLWAQRDVPWLMKMIQPDWLKSNGFHEIEADVNDTSLLLSGDHSIQQQLQEVREDDDDAEMTHSVAVNVYPATSRMPKLTIVVVDTIPVELKSSYMVWSWFIYVLSANLLLVIPLLWVAAWWSLRPIEALAKEVRELEEHNRELLNPATTRELTSLVRNLNRLLKSERERYDKYRTTLTDLTHSLKTPLXXLQXXLRSLRSEKMSVSDAEPVMLEQISRISQQIGYYLHRASMRGGTLLSRELHPVAPLLDNLTSALNKVYQRKGVNISLDISPEISFVGEQNDFVEVMGNVLDNACKYCLEFVEISARQTDEHLYIVVEDDGPGIPLSKREVIFDRGQRVDTLRPGQGVGLAVAREITEQYEGKIVAGESMLGGARMEVIFGRQHSAPKDE
# Variants of: B1
# Experiment: enrichment ratio after two sorts for PhoP signalling (ratio (wild type AVST 3.29)); higher = more functional
# Conditions: with PhoP (E. coli)
row,Variant,enrichment ratio
1,ESGK,≤ 0.25
2,PIHD,≤ 0.25
3,SCSA,9.03
4,IQDS,≤ 0.25
5,SWGD,≤ 0.25
6,DTWG,≤ 0.25
7,WHVA,≤ 0.25
8,THVE,≤ 0.25
9,DTPW,≤ 0.25
10,TLLH,≤ 0.25
11,NTCM,≤ 0.25
12,LNHE,≤ 0.25
13,RDYM,≤ 0.25
14,ADQH,≤ 0.25
15,LPPA,≤ 0.25
16,HDKT,≤ 0.25
17,REAF,≤ 0.25
18,NDEL,≤ 0.25
19,EHTN,≤ 0.25
20,ARYD,≤ 0.25
21,KPIH,≤ 0.25
22,WLTM,≤ 0.25
23,YANY,≤ 0.25
24,TNRE,≤ 0.25
25,VMIN,≤ 0.25

row,Variant,enrichment ratio
1,RSVE,≤ 0.25
2,LISI,≤ 0.25
3,WETS,≤ 0.25
4,PVLE,≤ 0.25
5,WDVM,≤ 0.25
6,ESVE,≤ 0.25
7,NCQR,≤ 0.25
8,PGLN,≤ 0.25
9,HFLN,≤ 0.25
10,REHA,1.44
11,NTVL,≤ 0.25
12,LMVA,≤ 0.25
13,KHPI,≤ 0.25
14,SYLR,≤ 0.25
15,RFSE,≤ 0.25
16,VFGQ,≤ 0.25
17,LAMY,≤ 0.25
18,HFDD,≤ 0.25
19,FRPI,≤ 0.25
20,VHAT,≤ 0.25
21,VVTD,≤ 0.25
22,NKAV,≤ 0.25
23,SGHE,≤ 0.25
24,HQMW,≤ 0.25
25,LARM,≤ 0.25

row,Variant,enrichment ratio
1,SEYM,19.4
2,QEVT,≤ 0.25
3,PHDE,≤ 0.25
4,LRRS,≤ 0.25
5,RLWY,≤ 0.25
6,KFQC,≤ 0.25
7,KNRL,≤ 0.25
8,TQQF,33.4
9,HMCK,≤ 0.25
10,SLNW,≤ 0.25
11,AAPQ,≤ 0.25
12,CSPV,≤ 0.25
13,PYAL,≤ 0.25
14,PWCL,≤ 0.25
15,ATYI,≤ 0.25
16,IFID,≤ 0.25
17,YDPF,≤ 0.25
18,STLQ,18.3
19,YSSC,≤ 0.25
20,DAVW,≤ 0.25
21,SLPV,1.39
22,FIAP,≤ 0.25
23,RFLH,≤ 0.25
24,EDMD,≤ 0.25
25,SQDF,≤ 0.25

row,Variant,enrichment ratio
1,QNIG,≤ 0.25
2,TRNH,≤ 0.25
3,EAPN,≤ 0.25
4,DGMD,≤ 0.25
5,YQCY,≤ 0.25
6,SQGH,4.25
7,NCYM,≤ 0.25
8,VKSE,≤ 0.25
9,TNIT,≤ 0.25
10,TCFD,≤ 0.25
11,TVRQ,≤ 0.25
12,NSKT,≤ 0.25
13,GGDI,≤ 0.25
14,VPYD,≤ 0.25
15,FECN,13
16,DVDD,≤ 0.25
17,DHGL,≤ 0.25
18,IEGI,≤ 0.25
19,EGSE,≤ 0.25
20,GRVQ,≤ 0.25
21,SSGY,9.85
22,LFFV,≤ 0.25
23,WGQK,≤ 0.25
24,ATSS,9.75
25,AGDP,≤ 0.25

row,Variant,enrichment ratio
1,ACLK,13.7
2,TISI,16.9
3,RIYR,≤ 0.25
4,LFSS,≤ 0.25
5,EHLT,≤ 0.25
6,MKHP,≤ 0.25
7,EYCH,≤ 0.25
8,NWGA,≤ 0.25
9,FLWF,≤ 0.25
10,DSCP,≤ 0.25
11,VAKF,≤ 0.25
12,LGMD,≤ 0.25
13,DGAC,≤ 0.25
14,DSIR,≤ 0.25
15,DLPT,≤ 0.25
16,YFST,≤ 0.25
17,WQYD,≤ 0.25
18,DRFV,≤ 0.25
19,DAGV,≤ 0.25
20,QCDI,≤ 0.25
21,WLCD,≤ 0.25
22,GPQP,≤ 0.25
23,YLKM,≤ 0.25
24,NRMN,≤ 0.25
25,QHSK,≤ 0.25

row,Variant,enrichment ratio
1,IGAF,≤ 0.25
2,PPKP,≤ 0.25
3,YLMM,≤ 0.25
4,LCYY,≤ 0.25
5,LWID,≤ 0.25
6,WRDK,≤ 0.25
7,NLDK,≤ 0.25
8,IGGY,≤ 0.25
9,WAWK,≤ 0.25
10,DPKV,≤ 0.25
11,QWCH,≤ 0.25
12,MCAD,≤ 0.25
13,ASLL,19.9
14,VREI,≤ 0.25
15,NSIM,≤ 0.25
16,HNMA,≤ 0.25
17,PLEE,≤ 0.25
18,VQMC,≤ 0.25
19,FFRG,≤ 0.25
20,GVCF,25
21,FSTC,≤ 0.25
22,DFYC,≤ 0.25
23,VMGA,≤ 0.25
24,SRFR,≤ 0.25
25,HWWE,≤ 0.25

row,Variant,enrichment ratio
1,WDDT,≤ 0.25
2,VCKW,≤ 0.25
3,HSDL,≤ 0.25
4,VRYD,≤ 0.25
5,NDTV,5.54
6,QERQ,≤ 0.25
7,MHQM,≤ 0.25
8,NYSM,≤ 0.25
9,KSWL,≤ 0.25
10,IRKT,≤ 0.25
11,HWQA,≤ 0.25
12,DRSE,≤ 0.25
13,GNIV,9.65
14,PHGT,≤ 0.25
15,PQFR,≤ 0.25
16,SKWT,≤ 0.25
17,LEWH,4.66
18,SEED,≤ 0.25
19,WKML,≤ 0.25
20,ELLP,≤ 0.25
21,FNHY,≤ 0.25
22,MAKY,≤ 0.25
23,VDGT,≤ 0.25
24,TVGY,10.4
25,YLLE,≤ 0.25

row,Variant,enrichment ratio
1,PLKG,≤ 0.25
2,NIPL,≤ 0.25
3,TDRT,≤ 0.25
4,IIDW,≤ 0.25
5,HTVP,≤ 0.25
6,LEKH,≤ 0.25
7,RYPQ,≤ 0.25
8,RNKS,≤ 0.25
9,KHAP,≤ 0.25
10,YECN,≤ 0.25
11,RIAT,≤ 0.25
12,FPIE,≤ 0.25
13,IHCR,≤ 0.25
14,RYDF,≤ 0.25
15,MSSC,5.54
16,GTAS,≤ 0.25
17,VDKY,≤ 0.25
18,AQPS,≤ 0.25
19,YKET,≤ 0.25
20,WFDS,≤ 0.25
